Laboratory results taken from article PMC12831459.
Residue numbers refer to the chain shown, from its start. Names and notes keep the numbering of the source. Results are given in words; binding and its absence hold for the method and conditions named. Binding seen in cells or lysates may run through a third protein. Some entries that bind do so weakly or less than the wild type. For part of these data: Sequences can lack the tags named with a protein. One block for each binder: values may come before it.

Legend:
[1] = target: GST-SMAD4 (full-length, WT) (human) (UniProt Q13485); assay: pull-down; GST-pulldown from lysates of HEK293T cells co-expressing a GST-tagged and a VF-tagged protein, then immunoblotting; in some panels cells treated with TGF-β (10 ng/ml, 4 h), SB431542 (10 μM, 1 h), ionomycin 10 μM + PMA 1 μM (4 h) or CsA (10 μM, 1 h)
[2] = target: T1, Nanoluc (Nluc)-tagged SMAD4 (human), Q13485; assay: FRET or BRET; BRETn screen in live cells: Nluc-tagged SMAD4 against Venus-tagged proteins of the OncoPPI v2 library (556 genes); hits at FOC >= 1.5 and P <= 0.05; settings: remark: other sources report otherwise
T1 chain: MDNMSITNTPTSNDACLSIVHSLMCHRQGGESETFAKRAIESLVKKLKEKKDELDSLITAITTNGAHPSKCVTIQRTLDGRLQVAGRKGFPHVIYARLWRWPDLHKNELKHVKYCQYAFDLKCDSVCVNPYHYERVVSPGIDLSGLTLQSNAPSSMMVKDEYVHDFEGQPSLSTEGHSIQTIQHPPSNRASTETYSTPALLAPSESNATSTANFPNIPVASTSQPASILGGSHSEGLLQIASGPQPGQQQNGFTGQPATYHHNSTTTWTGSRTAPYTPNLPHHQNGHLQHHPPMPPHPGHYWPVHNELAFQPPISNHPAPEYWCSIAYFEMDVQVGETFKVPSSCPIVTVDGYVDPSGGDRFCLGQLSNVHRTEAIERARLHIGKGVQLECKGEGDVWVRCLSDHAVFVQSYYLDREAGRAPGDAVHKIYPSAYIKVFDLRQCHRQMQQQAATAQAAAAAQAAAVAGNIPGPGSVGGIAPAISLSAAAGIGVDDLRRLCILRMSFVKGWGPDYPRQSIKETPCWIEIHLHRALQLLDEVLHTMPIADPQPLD

[3] = target: T2, GST-SMAD4 (full-length, WT) (human), Q13485; assay: pull-down; GST-pulldown from lysates of HEK293T cells co-expressing a GST-tagged and a VF-tagged protein, then immunoblotting; in some panels cells treated with TGF-β (10 ng/ml, 4 h), SB431542 (10 μM, 1 h), ionomycin 10 μM + PMA 1 μM (4 h) or CsA (10 μM, 1 h); settings: remark: other sources report otherwise
T2 chain: T1 chain

[4] = target: T2, GST-SMAD4 (full-length, WT) (human), …; assay: FRET or BRET; TR-FRET screen in cell lysates, orthogonal to the BRET screen; hits at FOC >= 1.5 and P <= 0.05; settings: remark: other sources report otherwise
[5] = target: SMAD4 (endogenous) (human (endogenous in Panc-1, Jurkat, MIA-PaCa-2, Capan-2)) (UniProt Q13485); assay: co-IP; endogenous proteins; SMAD4 immunoprecipitated, IgG as negative control; Panc-1, Jurkat, MIA-PaCa-2 and Capan-2 cells
[6] = target: C-Venus-tagged SMAD4 (human) (UniProt Q13485); assay: split reporter; BiFC with N-Venus and C-Venus fusions in transfected Panc-1 cells; imaging and fluorescence of cell lysates
[7] = target: N-Venus-tagged SMAD4 (NV-SMAD4) (human) (UniProt Q13485); assay: as above

binding [1]: binds
B1: VF-tagged NFATc1 T2, truncation of DBD and CD (426-716 amino acids) (domain or fragment, UniProt O95644-2 426-716)
chain: YELRIEVQPKSHHRAHYETEGSRGAVKASAGGHPIVQLHGYLENEPLMLQLFIGTADDRLLRPHAFYQVHRITGKTVSTTSHEAILSNTKVLEIPLLPENSMRAVIDCAGILKLRNSDIELRKGETDIGRKNTRVRLVFRVHVPQPSGRTLSLQVASNPIECSQRSAQELPLVEKQSTDSYPVVGGKKMVLSGHNFLQDSKVIFVEKAPDGHHVWEMEAKTDRDLCKPNSLVVEIPPFRNQRITSPVHVSFYVCNGKRKRSQYQRFTYLPANGNAIFLTVSREHERVGCFF

binding [2]: binds | binding [3]: binds | binding [4]: binds
B2: VF-tagged SMAD3, P84022 1-425 (protein)
chain: MSSILPFTPPIVKRLLGWKKGEQNGQEEKWCEKAVKSLVKKLKKTGQLDELEKAITTQNVNTKCITIPRSLDGRLQVSHRKGLPHVIYCRLWRWPDLHSHHELRAMELCEFAFNMKKDEVCVNPYHYQRVETPVLPPVLVPRHTEIPAEFPPLDDYSHSIPENTNFPAGIEPQSNIPETPPPGYLSEDGETSDHQMNHSMDAGSPNLSPNPMSPAHNNLDLQPVTYCEPAFWCSISYYELNQRVGETFHASQPSMTVDGFTDPSNSERFCLGLLSNVNRNAAVELTRRHIGRGVRLYYIGGEVFAECLSDSAIFVQSPNCNQRYGWHPATVCKIPPGCNLKIFNNQEFAALLAQSVNQGFEAVYQLTRMCTIRMSFVKGWGAEYRRQTVTSTPCWIELHLNGPLQWLDKVLTQMGSPSIRCSSVS

binding [3]: binds
B3: SMAD3 found with GST-SMAD4 in HEK293T cells treated with TGF-β or SB431542 (Figure 5A), P84022 1-425 (protein)
chain: B2 chain

binding [5]: binds
B4: NFATc1 (endogenous) (protein, UniProt O95644 1-943)
chain: MPSTSFPVPSKFPLGPAAAVFGRGETLGPAPRAGGTMKSAEEEHYGYASSNVSPALPLPTAHSTLPAPCHNLQTSTPGIIPPADHPSGYGAALDGGPAGYFLSSGHTRPDGAPALESPRIEITSCLGLYHNNNQFFHDVEVEDVLPSSKRSPSTATLSLPSLEAYRDPSCLSPASSLSSRSCNSEASSYESNYSYPYASPQTSPWQSPCVSPKTTDPEEGFPRGLGACTLLGSPRHSPSTSPRASVTEESWLGARSSRPASPCNKRKYSLNGRQPPYSPHHSPTPSPHGSPRVSVTDDSWLGNTTQYTSSAIVAAINALTTDSSLDLGDGVPVKSRKTTLEQPPSVALKVEPVGEDLGSPPPPADFAPEDYSSFQHIRKGGFCDQYLAVPQHPYQWAKPKPLSPTSYMSPTLPALDWQLPSHSGPYELRIEVQPKSHHRAHYETEGSRGAVKASAGGHPIVQLHGYLENEPLMLQLFIGTADDRLLRPHAFYQVHRITGKTVSTTSHEAILSNTKVLEIPLLPENSMRAVIDCAGILKLRNSDIELRKGETDIGRKNTRVRLVFRVHVPQPSGRTLSLQVASNPIECSQRSAQELPLVEKQSTDSYPVVGGKKMVLSGHNFLQDSKVIFVEKAPDGHHVWEMEAKTDRDLCKPNSLVVEIPPFRNQRITSPVHVSFYVCNGKRKRSQYQRFTYLPANVPIIKTEPTDDYEPAPTCGPVSQGLSPLPRPYYSQQLAMPPDPSSCLVAGFPPCPQRSTLMPAAPGVSPKLHDLSPAAYTKGVASPGHCHLGLPQPAGEAPAVQDVPRPVATHPGSPGQPPPALLPQQVSAPPSSSCPPGLEHSLCPSSPSPPLPPATQEPTCLQPCSPACPPATGRPQHLPSTVRRDESPTAGPRLLPEVHEDGSPNLAPIPVTVKREPEELDQLYLDDVNEIIRNDLSSTSTHS

binding [1]: no binding
B5: VF-tagged NFATc1 T1, truncation of AD and RD (1-425 amino acids) (domain or fragment, UniProt O95644-2 1-425)
chain: MPSTSFPVPSKFPLGPAAAVFGRGETLGPAPRAGGTMKSAEEEHYGYASSNVSPALPLPTAHSTLPAPCHNLQTSTPGIIPPADHPSGYGAALDGGPAGYFLSSGHTRPDGAPALESPRIEITSCLGLYHNNNQFFHDVEVEDVLPSSKRSPSTATLSLPSLEAYRDPSCLSPASSLSSRSCNSEASSYESNYSYPYASPQTSPWQSPCVSPKTTDPEEGFPRGLGACTLLGSPRHSPSTSPRASVTEESWLGARSSRPASPCNKRKYSLNGRQPPYSPHHSPTPSPHGSPRVSVTDDSWLGNTTQYTSSAIVAAINALTTDSSLDLGDGVPVKSRKTTLEQPPSVALKVEPVGEDLGSPPPPADFAPEDYSSFQHIRKGGFCDQYLAVPQHPYQWAKPKPLSPTSYMSPTLPALDWQLPSHSGP

binding [1]: binds
B6: VF-tagged NFATc1 R484A/L485A (protein, UniProt O95644-2 1-716)
chain: MPSTSFPVPSKFPLGPAAAVFGRGETLGPAPRAGGTMKSAEEEHYGYASSNVSPALPLPTAHSTLPAPCHNLQTSTPGIIPPADHPSGYGAALDGGPAGYFLSSGHTRPDGAPALESPRIEITSCLGLYHNNNQFFHDVEVEDVLPSSKRSPSTATLSLPSLEAYRDPSCLSPASSLSSRSCNSEASSYESNYSYPYASPQTSPWQSPCVSPKTTDPEEGFPRGLGACTLLGSPRHSPSTSPRASVTEESWLGARSSRPASPCNKRKYSLNGRQPPYSPHHSPTPSPHGSPRVSVTDDSWLGNTTQYTSSAIVAAINALTTDSSLDLGDGVPVKSRKTTLEQPPSVALKVEPVGEDLGSPPPPADFAPEDYSSFQHIRKGGFCDQYLAVPQHPYQWAKPKPLSPTSYMSPTLPALDWQLPSHSGPYELRIEVQPKSHHRAHYETEGSRGAVKASAGGHPIVQLHGYLENEPLMLQLFIGTADDAALRPHAFYQVHRITGKTVSTTSHEAILSNTKVLEIPLLPENSMRAVIDCAGILKLRNSDIELRKGETDIGRKNTRVRLVFRVHVPQPSGRTLSLQVASNPIECSQRSAQELPLVEKQSTDSYPVVGGKKMVLSGHNFLQDSKVIFVEKAPDGHHVWEMEAKTDRDLCKPNSLVVEIPPFRNQRITSPVHVSFYVCNGKRKRSQYQRFTYLPANGNAIFLTVSREHERVGCFF

binding [6]: binds
B7: N-Venus-tagged NFATc1 (protein, UniProt O95644-2 1-716)
chain: B6 chain with A484R, A485L

binding [7]: binds
B8: C-Venus-tagged NFATc1 (CV-NFATc1) (protein, UniProt O95644-2 1-716)
chain: B6 chain with A484R, A485L

binding [1]: binds
B9: VF-tagged NFATc1 T551A (protein, UniProt O95644-2 1-716)
chain: B6 chain with A484R, A485L, T551A

binding [1]: binds
B10: VF-tagged NFATc1 R484A/L485A/T551A (protein, UniProt O95644-2 1-716)
chain: B6 chain with T551A
